Columns and labels:
[1] = system: IFN-γ, IL-2 and TNF-α levels in serum; experiment: Serum cytokine levels (IFN-γ, IL-2, TNF-α) by multiplex in NCI-H929 tumor bearing humanized mice; type: in vivo, humanized NSG mice; settings: combination with Carfilzomib; 48 hours after first GPRC5D-TCB and 24 h after Carfilzomib injection; FIGS. 2B, 2C, 2D
Method: (§1) FIG. 2A, 2B, 2C. 2D: Results of an efficacy experiment evaluating GPRC5D-TCB as single agent and in combination with Carfilzomib against NCI-H929 multiple myeloma tumors subcutaneously engrafted into stem cell humanized NSG. (FIG. 2A) GPRC5D-TCB was injected intravenously at 0.1 mg/kg once weekly and combined with twice weekly intravenous administration of Carfilzomibat 3 mg/kg and NCI-H929 tumor growth was monitored. IFN-γ (FIG. 2B), IL-2 (FIG. 2C) and TNF-α (FIG. 2D) levels in serum of mice were determined 48 hours after first GPRC5D-TCB and 24 h after Carfilzomib injection using multiplex technology. Statistical analysis, ordinary one way ANOVA, Tukey test: p=<0.0001 (****); p=0.0001 to 0.001 (***); p=0.001 to 0.01 (**); p=0.01 to 0.05 (*): p=>0.05 (ns).
(§2) All in vivo efficacy and PD experiments were performed in humanized NSG mice carrying subcutaneous multiple myeloma xenograft tumors. […] Tumors growth was monitored twice weekly using Caliper measurements. In order to quantify tumor infiltrating lymphocytes, in some experiments tumors of scout animals were harvested and single cell suspensions were subjected to flow cytometry using FACSFortessa device and FlowJo software. Cytokine in serum of treated mice were analysed using the Bio-Plex Multiplex Immunoassay System from BioRad in combination with the Bio-Plex Pro Human Cytokine 27-plex Assay. […]

[2] = system: KMS-12BM multiple myeloma tumors; experiment: Efficacy against subcutaneous KMS-12BM multiple myeloma tumors in stem cell humanized NSG mice; type: in vivo; settings: FIGS. 1A, 1B
Method: FIG. 1A, 1B: Results of an efficacy experiment evaluating GPRC5D-TCB as single agent and in combination with Bortezmib with or without Dexamethasone against KMS-12BM multiple myeloma tumors subcutaneously engrafted into stem cell humanized NSG. (FIG. 1A) GPRC5D-TCB was injected intravenously at 1 mg/kg once weekly and combined with twice weekly intravenous administration of Bortezomib at 0.25 mg/kg with or without oral Dexamethasone at 2 mg/kg and KMS-12BM tumor growth was monitored. (FIG. 1B) KMS-12BM tumor load of individual mice was evaluated at day 35 (end of study). Statistical analysis, ordinary one way ANOVA, Tukey test: p=<0.0001 (****); p=0.0001 to 0.001 (***); p=0.001 to 0.01 (**); p=0.01 to 0.05 (*); p=>0.05 (ns).
as §2

[3] = system: NCI-H929 multiple myeloma tumors; experiment: Efficacy against subcutaneous NCI-H929 multiple myeloma tumors in stem cell humanized NSG mice; type: in vivo; settings: GPRC5D-TCB 0.1 mg/kg i.v. once weekly combined with Carfilzomib 3 mg/kg i.v. twice weekly, compared to GPRC5D-TCB monotherapy; FIG. 2A
Method: as §1, §2

B1: GPRC5D-TCB: anti-GPRC5D/anti-CD3 bispecific antibody, SEQ ID NO: 26, 27, 28 and 29 as disclosed in WO 2021/018859 A1 (protein)
chain 1: EIVLTQSPGTLSLSPGERATLSCRASQSVSISGINLMNWYQQKPGQQPKLLIYHASILASGIPDRFSGSGSGTDFTLTISRLEPEDFAVYYCQQTRESPLTFGQGTRLEIKRTVAAPSVFIFPPSDRKLKSGTASVVCLLNNFYPREAKVQWKVDNALQSGNSQESVTEQDSKDSTYSLSSTLTLSKADYEKHKVYACEVTHQGLSSPVTKSFNRGEC
chain 2: EVQLLESGGGLVQPGGSLRLSCAASGFQFSSYAMNWVRQAPGKGLEWVSRIRSKYNNYATYYADSVKGRFTISRDDSKNTLYLQMNSLRAEDTAVYYCVRHTTFPSSYVSYYGYWGQGTLVTVSSASVAAPSVFIFPPSDEQLKSGTASVVCLLNNFYPREAKVQWKVDNALQSGNSQESVTEQDSKDSTYSLSSTLTLSKADYEKHKVYACEVTHQGLSSPVTKSFNRGEC
chain 3: EVQLLESGGGLVQPGGSLRLSCAASGFTFSKYAMAWVRQAPGKGLEWVASISTGGVNTYYADSVKGRFTISRDNSKNTLYLQMNSLRAEDTAVYYCATHTGDYFDYWGQGTMVTVSSASTKGPSVFPLAPSSKSTSGGTAALGCLVEDYFPEPVTVSWNSGALTSGVHTFPAVLQSSGLYSLSSVVTVPSSSLGTQTYICNVNHKPSNTKVDEKVEPKSCDKTHTCPPCPAPEAAGGPSVFLFPPKPKDTLMISRTPEVTCVVVDVSHEDPEVKFNWYVDGVEVHNAKTKPREEQYNSTYRVVSVLTVLHQDWLNGKEYKCKVSNKALGAPIEKTISKAKGQPREPQVCTLPPSRDELTKNQVSLSCAVKGFYPSDIAVEWESNGQPENNYKTTPPVLDSDGSFFLVSKLTVDKSRWQQGNVFSCSVMHEALHNHYTQKSLSLSPGK
chain 4: EVQLLESGGGLVQPGGSLRLSCAASGFTFSKYAMAWVRQAPGKGLEWVASISTGGVNTYYADSVKGRFTISRDNSKNTLYLQMNSLRAEDTAVYYCATHTGDYFDYWGQGTMVTVSSASTKGPSVFPLAPSSKSTSGGTAALGCLVEDYFPEPVTVSWNSGALTSGVHTFPAVLQSSGLYSLSSVVTVPSSSLGTQTYICNVNHKPSNTKVDEKVEPKSCDGGGGSGGGGSQAVVTQEPSLTVSPGGTVTLTCGSSTGAVTTSNYANWVQEKPGQAFRGLIGGTNKRAPGTPARFSGSLLGGKAALTLSGAQPEDEAEYYCALWYSNLWVFGGGTKLTVLSSASTKGPSVFPLAPSSKSTSGGTAALGCLVKDYFPEPVTVSWNSGALTSGVHTFPAVLQSSGLYSLSSVVTVPSSSLGTQTYICNVNHKPSNTKVDKKV[human IgG1 Fc with changes cut from this listing]
B1 was tested, and the “cytokine release (IFN-γ, IL-2, TNF-α in serum)” value [1] was “slight decrease in cytokine release”, the “efficacy against KM12-BM tumors (tumor growth, tumor load at day 35)” value ([2]; GPRC5D-TCB 1 mg/kg i.v. once weekly in combination with Bortezomib 0.25 mg/kg i.v. twice weekly) was “not compromised” and the “efficacy against KM12-BM tumors (tumor growth, tumor load at day 35)” value ([2]; GPRC5D-TCB 1 mg/kg i.v. once weekly in triple combination with Bortezomib 0.25 mg/kg i.v. twice weekly and oral Dexamethasone 2 mg/kg) was “boosted”. The “onset of tumor growth inhibition” value [3] was “faster onset of tumor growth inhibition” and the tumor relapse [3] was “delayed tumor relapse”.
